The compounds below were run on Influenza A virus (assay: microbe, parasite or virus in culture). Settings: A/Hebei Xinhua/SWL1106/2017 (H1N1) pdm09, MDCK.

Structure (SMILES) | EC50 [µM]
NC12CC3CC(CC(C3)C1)C2 [AMANTADINE] | > 533
CCOC(=O)C1=C[C@@H](OC(CC)CC)[C@H](NC(C)=O)[C@@H](N)C1 [OSELTAMIVIR] | > 244
CC(=O)N[C@H]1[C@H]([C@H](O)[C@H](O)CO)OC(C(=O)O)=C[C@@H]1NC(=N)N [ZANAMIVIR] | 5.09

Reference: ChEMBL document CHEMBL4732179, “Design, synthesis, and bioassay of 4-thiazolinone derivatives as influenza neuraminidase inhibitors” (Eur J Med Chem, 2021)
